Source: the supplement of paper PMC3334620
In all, about 33,000 sequences were measured (“E-score (-0.5 to 0.5)”: median about -0.021, highest 2% from about 0.32 on). This is one part of the list.

These sequences were tested against T1, Zap1 (UniProt P47043) (assay: PBM E-score (8-mer binding enrichment) (E-score (-0.5 to 0.5)); higher = stronger / more preferred TF binding; most listed sequences are background and not binding sites). Details: protein concentration: 200 nM; construct: GST-full length.
T1 sequence: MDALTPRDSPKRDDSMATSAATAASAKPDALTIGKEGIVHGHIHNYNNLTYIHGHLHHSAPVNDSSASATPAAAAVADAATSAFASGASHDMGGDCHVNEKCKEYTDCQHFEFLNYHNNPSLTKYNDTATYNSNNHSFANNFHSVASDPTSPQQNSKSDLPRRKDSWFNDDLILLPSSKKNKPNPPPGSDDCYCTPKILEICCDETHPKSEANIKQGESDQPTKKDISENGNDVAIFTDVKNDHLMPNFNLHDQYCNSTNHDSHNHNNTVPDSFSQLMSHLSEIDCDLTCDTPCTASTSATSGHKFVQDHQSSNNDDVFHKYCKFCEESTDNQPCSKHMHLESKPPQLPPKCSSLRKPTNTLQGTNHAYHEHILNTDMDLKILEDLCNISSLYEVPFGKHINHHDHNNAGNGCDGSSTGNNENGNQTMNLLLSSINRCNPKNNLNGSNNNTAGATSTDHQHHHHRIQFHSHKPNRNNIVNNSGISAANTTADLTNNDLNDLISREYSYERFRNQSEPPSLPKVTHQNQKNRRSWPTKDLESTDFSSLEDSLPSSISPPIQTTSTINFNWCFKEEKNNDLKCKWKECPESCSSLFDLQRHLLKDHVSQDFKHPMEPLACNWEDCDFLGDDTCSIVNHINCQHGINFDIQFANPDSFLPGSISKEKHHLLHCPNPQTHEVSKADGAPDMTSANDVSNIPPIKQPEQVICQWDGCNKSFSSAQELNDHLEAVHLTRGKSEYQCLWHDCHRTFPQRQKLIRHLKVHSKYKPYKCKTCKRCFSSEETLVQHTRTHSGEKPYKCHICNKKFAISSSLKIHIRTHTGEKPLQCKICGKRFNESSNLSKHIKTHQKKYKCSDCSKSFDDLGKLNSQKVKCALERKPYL
Outline: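 PURExpress in vitro transcription/translation supplied GST-tagged yeast transcription factors, either full-length or DNA-binding domain. Applied at about 100-200 nM to universal all-10-mer Agilent arrays double-stranded by primer extension, the bound protein was detected with fluorescent anti-GST. E-scores, modified Wilcoxon-Mann-Whitney statistics, were given by the Universal PBM Analysis Suite to ungapped eight-base words pooled with their reverse complements after masliner normalisation.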

Sequence | PBM E-score
CCTTGGTA | 0.177
GATATACA | 0.0861
ACTCCGTG | -0.15
AGAGTCCG | -0.152
AGAGTTCC | -0.167
ACCTTGTC | 0.106
AAACTGGG | -0.0632
CTATGCCC | -0.0231
ATTACGCA | 0.113
ATTCCATG | -0.113
CGAGGTCC | 0.0996
AAACCTCT | 0.252
GACCATCC | -0.012
CCGATAAA | 0.00825
CACAGACA | 0.197
GGGTGATA | 0.277
CTCCTAAG | -0.153
AGGGGCCG | -0.0406
ATGCATTG | 0.00167
CGCGATAA | 0.201
CAGATGGA | 0.0614
ACTACACA | -0.0197
ATGAAAAC | 0.234
TGACAGAA | 0.0424
AACAGGTC | 0.167

Sequence | PBM E-score
ATGTCTGC | -0.116
AACGACCC | 0.191
GCACTATA | -0.094
GTCCATTA | 0.124
CCCGGAGC | -0.0735
TCGCGTCA | -0.134
CATCTCCG | -0.0726
AAGCCACA | 0.0484
CCCACTCC | -0.13
ATTCTTCC | -0.235
GCACACCA | -0.0829
CCGCCATA | -0.00973
AAGTTTTA | 0.214
GTTCGAAA | 0.134
ATAGGTTC | 0.138
AACCCCCT | -0.187
CGTTATCA | 0.0155
CTTATGAA | 0.0314
TACAGTAA | 0.0576
ATTACATG | 0.137
ATGACGGG | -0.0936
CATGGAAG | 0.0211
AAGCAATC | -0.00425
AAAGTAGC | -0.0277
ACTCTGTA | 0.0505

Sequence | PBM E-score
AGAACTCC | -0.13
GAGGTTGC | 0.238
GTGGGGTA | 0.368
ACTCGTTG | 0.0081
AACATGAA | 0.016
TGTTCGAA | 0.0467
GAAATCGA | -0.0672
CCCTTCGA | 0.00585
AGAATCCT | -0.19
TAGTGTCA | -0.048
AGCTTCAA | -0.0714
TCCCGGAA | 0.0179
ATTTTAAC | 0.2
ATTCACCC | -0.0639
AAGACAGC | -0.174
CGAGAGAA | -0.0531
CTCGTTTC | -0.0619
CCGTAATA | 0.0379
CGAGGCAC | -0.231
GGAATTAC | 0.0274
AATAGGAT | 0.0662
CGCTCTCA | -0.222
TACGTTGA | -0.0752
GCTGAACC | -0.0457
AAGATTCC | 0.0451

Sequence | PBM E-score
ATGAAATC | 0.0985
GGAGTACC | 0.228
ACACCCGA | 0.173
CCAATGAA | -0.0107
CCCCCTAC | -0.32
CGTGTATC | -0.0249
ACCACTGA | 0.142
ATATAGTC | 0.0822
GGAACCGA | -0.0122
AGTATATG | 0.0652
CATTGACA | -0.0917
CCCTCGTA | 0.111
AGGGCGTG | -0.0776
CGCCCGGC | -0.316
CCAACGCG | 0.0335
AACGCCAT | -0.0354
ATGACCAT | 0.293
CACGAAGG | 0.0742
AACGACGT | -0.171
CTGCATGA | -0.167
CCCGGCGA | -0.312
CCCCTAAC | 0.232
CATCACAG | -0.0928
ACGCGAGA | 0.0934
GCAAACGA | 0.0409

Sequence | PBM E-score
CTATCTTC | -0.0696
GAGCAAAC | -0.0725
AGGACTAT | -0.165
GAAGCGGA | -0.0787
AGAGAACA | -0.0594
ACATAGCC | -0.0651
ATTCCCGC | 0.0634
CCCGCTGA | -0.141
AGGAGCCG | -0.2
CCCTATTC | 0.0428
AGGCAGAG | -0.198
AACTATTC | -0.028
TGTGGAAA | 0.0425
ATCTTTTC | -0.0462
ACTCCACC | -0.128
GGTGGTCA | 0.341
AGTTATTG | 0.234
CACCTCGC | -0.187
CAAGCGTA | -0.219
AAGCCCTA | -0.108
CTTAACAC | 0.0174
CCCTGCAA | 0.0695
ACGGGAGT | -0.0426
CCCATAGG | 0.129
CACATTCC | 0.0768

Sequence | PBM E-score
CCTTGGCA | -0.177
GTATCAAA | 0.0561
ATGCGCGC | 0.0706
ACTTAAAA | 0.167
GTTATCGA | 0.165
ACGGTTGC | 0.117
AAGGGGCC | 0.0742
CTGGCCAA | -0.153
CGGCTATC | -0.141
CGGCAGTA | -0.239
AGGTAGAG | -0.055
ACAGCGAC | -0.152
ATTCCCGG | 0.0087
AGAAAATA | 0.13
CACGTGGG | -0.175
CCCGGTCC | 0.047
AAAAATAA | 0.228
TTAAGAAA | 0.0591
GCTCAAGC | -0.181
CCGTAGAA | -0.182
ACCGCGAC | 0.24
AAGCTTGC | -0.153
GGACGCTA | -0.15
GGCCCATA | -0.0394
CCGATCGA | -0.0537

Sequence | PBM E-score
AGTCACGC | -0.2
ATACGGAA | 0.0528
CTAGATAG | 0.0146
ACCTGCCT | -0.202
TCCCAGGA | -0.172
GATAGAAA | 0.0479
AAATCTTC | -0.0762
GAATTCCA | 0.0941
CCTAAGAG | 0.109
ACTTGGGC | 0.0183
AGAGAACC | 0.0338
TGGCCCCA | -0.102
ATCTTGCA | 0.119
CCGGACAC | -0.0512
GAAGCACC | -0.14
CCGTGCAG | 0.029
GACTACTC | -0.184
CTCGCCGA | -0.179
AGTATAAT | 0.105
ACGTGTAC | -0.092
CAATCCAA | 0.0784
AGGCGTTA | 0.0407
ATCGGATC | -0.214
CAAAGATA | 0.0414
TACTACCA | 0.124

Sequence | PBM E-score
CGTCCAGA | -0.322
GCATATCC | -0.12
CGAATTCG | -0.233
GAACGCGA | -0.0568
AGAGCAGA | -0.196
CGCGCACC | 0.00053
ATATGTAC | 0.169
ACCGTATA | -0.00063
ATAGAAAA | 0.0702
AAGCCGCT | -0.214
AGACGGAT | 0.0316
CAGAGGCA | -0.0607
ACTCTCAC | 0.0136
AGATACTG | -0.0296
AATTGCGT | 0.0206
CATAATAA | 0.0342
CACACAGC | 0.0274
CCTGAATA | 0.16
AATATTGC | -0.0194
AATGACGA | -0.0215
AAATGTGA | 0.106
CCTTGTCA | 0.0134
AGCGCTCA | -0.246
ACACGGTC | 0.0091
AGTTACAG | 0.171

Sequence | PBM E-score
CACGATAG | -0.0513
CCAAATGA | 0.197
AGCTGGGC | -0.302
GCAGTCAA | -0.169
GATCATTA | 0.0548
CGAACGCC | -0.304
AGCGGAAT | -0.227
GGCATTGA | -0.0797
AAATTCGA | -0.0092
AGATCGAC | -0.0492
TCCACACA | 0.0139
CTAAAAAG | 0.196
CAGTGTCG | -0.178
GCCAAGGC | -0.236
AATATTTA | 0.137
ATGCACTG | -0.185
ATTGGGAG | -0.0694
TAGCAATA | 0.106
ACCAAAGA | 0.245
